# Experimental data reported in the supplement of paper PMC9174493.
# Counter-ions that a name gives are not always drawn. The list shows a part of the results. Single values of this set are uncertain. Values with irradiation are relative to irradiated vehicle.
# System: A549-Dual
# Assay: NF-kB reporter (SEAP) activity, viability-corrected, relative to vehicle (fold change vs vehicle); higher = more activation of STING-IRF / NF-kB immune response reporter
# Settings: 1 µM; irradiation: 8 Gy/4 fr
# 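Also: viability correction based on the alamar blue assay, with concentrations leaving 10% survival or less dropped.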
row,Compound,NF-kB reporter
1,CCCCC1(COC(=O)CCC(=O)O)C(=O)N(c2ccccc2)N(c2ccccc2)C1=O [Suxibuzone],1.67
2,CS(=O)(=O)Nc1cc2occ(NC=O)c(=O)c2cc1Oc1ccccc1 [Iguratimod],1.11
3,COc1cc2nccc(Oc3ccc(NC(=O)Nc4cc(C)on4)c(Cl)c3)c2cc1OC [Tivozanib (AV-951)],0.635
4,Cc1ccc(S(=O)(=O)O)cc1.NC(=O)c1cccc2cn(-c3ccc(C4CCCNC4)cc3)nc12 (centres undefined) [Niraparib (MK-4827) tosylate],0.973
5,CC(C)OC(=O)CCC/C=C\CC1C(O)CC(O)C1CCC(O)CCc1ccccc1 (centres undefined) [Latanoprost],0.999
6,"O=c1[nH]cc(F)c(=O)[nH]1 [Fluorouracil (5-Fluoracil, 5-FU)]",1.1
7,CC1(C(=O)O)CCC2(C)CCC3(C)C(=CC(=O)C4C5(C)CCC(OC6OC(C(=O)O)C(O)C(O)C6OC6OC(C(=O)O)C(O)C(O)C6O)C(C)(C)C5CCC43C)C2C1.N.N (centres undefined) [Diammonium Glycyrrhizinate],1.35
8,"CC1(C)CCC(CN2CCN(c3ccc(C(=O)NS(=O)(=O)c4ccc(NCC5CCOCC5)c([N+](=O)[O-])c4)c(Oc4cnc5[nH]ccc5c4)c3)CC2)=C(c2ccc(Cl)cc2)C1 [Venetoclax (ABT-199, GDC-0199)]",0.916
9,CCN(CC)Cc1cc(Nc2ccnc3cc(Cl)ccc23)ccc1O.Cl.Cl [Amodiaquine hydrochloride],1.1
10,CCN(C(=O)c1c(O)c2c(Cl)cccc2n(C)c1=O)c1ccccc1 [Laquinimod],1.66
11,O=C(c1ccc(OCCN2CCCCC2)cc1)c1c(-c2ccc(O)cc2)sc2cc(O)ccc12 [Raloxifene],0.951

# Same assay, conditions: 1 µM; irradiation: none
row,Compound,NF-kB reporter
1,CCC(=O)OCC(=O)C1(OC(=O)CC)C(C)CC2C3CCC4=CC(=O)C=CC4(C)C3(Cl)C(O)CC21C (centres undefined) [Beclomethasone dipropionate],0.741
2,CC(=O)Nc1ccc(OC(=O)c2ccccc2OC(C)=O)cc1 [Benorylate],0.777
3,Nc1ccccc1NC(=O)c1ccc(CNC(=O)OCc2cccnc2)cc1 [Entinostat (MS-275)],1.09
4,COc1cc(N2CCC(N3CCN(C)CC3)CC2)ccc1Nc1ncc(Cl)c(Nc2ccccc2P(C)(C)=O)n1,0.898
5,Cc1c(-c2ccc(-c3ccccc3F)cc2)nc2ccc(F)cc2c1C(=O)O [Brequinar],1.32
6,CCC1/C=C(\C)CC(C)CC(OC)C2OC(O)(C(=O)C(=O)N3CCCCC3C(=O)OC(/C(C)=C/C3CCC(Cl)C(OC)C3)C(C)C(O)CC1=O)C(C)CC2OC (centres undefined) [Pimecrolimus],1.61
7,COC(=O)/C=C/C(=O)OC [Dimethyl Fumarate],0.593
8,Cc1cc(Nc2ncc(Cl)c(Nc3ccccc3S(=O)(=O)C(C)C)n2)c(OC(C)C)cc1C1CCNCC1 [Ceritinib (LDK378)],0.906
9,Nc1nc(Cl)nc2c1ncn2C1CC(O)C(CO)O1 (centres undefined) [Cladribine],1.15
10,CC12CCC(=O)C=C1CCC1C2C(O)CC2(C)C1CCC2(O)C(=O)CO (centres undefined) [Hydrocortisone],1.15
11,Cc1coc2c1C(=O)C(=O)c1c-2ccc2c(C)cccc12 [Tanshinone I],1.06
12,Cn1cnc([N+](=O)[O-])c1Sc1ncnc2nc[nH]c12 [Azathioprine],1.06
13,O=c1ccc2cc3ccoc3cc2o1 [Psoralen],0.798
14,CCC(=O)NS(=O)(=O)c1ccc(-c2c(-c3ccccc3)noc2C)cc1 [Parecoxib],1.02
15,COc1ccc(-c2ccc3cc(C(=O)O)ccc3c2)cc1C12CC3CC(CC(C3)C1)C2 [Adapalene],1.26
16,CCC(C(=O)O)c1ccc(N2Cc3ccccc3C2=O)cc1 (centres undefined) [Indobufen],0.833
17,COC1CC2CCC(C)C(O)(O2)C(=O)C(=O)N2CCCCC2C(=O)OC(C(C)CC2CCC(O)C(OC)C2)CC(=O)C(C)/C=C(\C)C(O)C(OC)C(=O)C(C)CC(C)/C=C/C=C/C=C/1C (centres undefined) [Rapamycin (Sirolimus)],1.25
18,COc1ccc(C2CNC(=O)C2)cc1OC1CCCC1 (centres undefined) [Rolipram],0.982
